Test results reported in PubChem BioAssay AID360 (National Center for Advancing Translational Sciences (NCATS), 2006).
In all, about 48,000 compounds went through this assay and about 550 (1.1%) were called active. About 4% were inconclusive and are not listed. Rule as the data show it: active = potency below about 15 µM; inconclusive = mostly about 16 µM to 33 µM; inactive = weaker than that. The list shows a part of the results.

Each compound was assayed against Lysosomal acid glucosylceramidase (Homo sapiens) (UniProt P04062) (assay: Glucocerebrosidase). Conditions: purified enzyme, resorufin glucoside fluorescence (screen aimed at inhibitors), 20 min; series mostly up to 77 µM.
UniProt P04062, sequence (P04062 whole entry, looked up): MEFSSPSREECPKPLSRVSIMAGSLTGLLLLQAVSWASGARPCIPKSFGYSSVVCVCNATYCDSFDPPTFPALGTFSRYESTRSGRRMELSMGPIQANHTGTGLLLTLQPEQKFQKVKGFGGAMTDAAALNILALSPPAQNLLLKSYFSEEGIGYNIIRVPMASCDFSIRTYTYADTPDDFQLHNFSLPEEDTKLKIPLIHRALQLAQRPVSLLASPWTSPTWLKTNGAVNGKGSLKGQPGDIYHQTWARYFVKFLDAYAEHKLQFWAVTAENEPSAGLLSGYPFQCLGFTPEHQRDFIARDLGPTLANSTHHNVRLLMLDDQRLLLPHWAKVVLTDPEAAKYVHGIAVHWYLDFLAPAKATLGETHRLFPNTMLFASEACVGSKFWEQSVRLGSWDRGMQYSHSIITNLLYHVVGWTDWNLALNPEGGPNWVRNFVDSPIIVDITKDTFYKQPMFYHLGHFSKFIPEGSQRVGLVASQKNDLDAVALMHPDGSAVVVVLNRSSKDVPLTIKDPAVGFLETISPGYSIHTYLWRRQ
In short: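 Normal human glucocerebrosidase (0.2 nM final) was assayed with resorufin β-D-glucopyranoside (30 uM final) in 50mM citric acid/KH2PO4, 10mM sodium taurocholate, 0.01% tween-20, pH 5.9. Compounds were titrated; fluorescence (Ex 548, Em 600) read after 20 min at RT.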
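Also: the screen sought inhibitors.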
Potency is read from the fitted curve at half-maximal effect.

Potency, inactive:
COc1ccc2[nH]cc(C(=O)CN3CCCC(C)C3)c2c1 (stereo not given) > 76.9 µM
COC(=O)c1[nH]c2ccc(C)cc2c1NC(=O)C1=COCCO1 > 76.9 µM
O=C(NC1CCCC1)C1c2ccccc2C(=O)N1C1CCCCC1 (stereo not given) > 76.9 µM
COCCn1c(SCc2ccc(C(=O)OC)o2)nc2cc(Cl)ccc2c1=O > 76.9 µM
CCN(C(=O)COC(=O)c1c(-c2ccccc2)noc1C)C1CCS(=O)(=O)C1 (stereo not given) > 76.9 µM
CN(C)c1ccc(CNC23CN4CN(CN(C4)C2)C3)cc1 > 76.9 µM
CCOC(=O)c1cc(C#N)c(SCC(=O)c2cc(C#N)c(SC)nc2C)nc1C > 76.9 µM
O=C(CCC(=O)N(CC(=O)NC1CCCCC1)Cc1ccco1)Nc1nccs1 > 76.9 µM
Cc1ccc2c(c1)c(C)c(C)n2CC(O)Cn1nnc2ccccc21 (stereo not given) > 76.9 µM
COc1ccc(-c2nnn(CC(=O)N(CC(=O)NCCC(C)C)c3ccccc3)n2)cc1OC > 76.9 µM
Cc1cc(C)nc(SC2CCOC2=O)n1 (stereo not given) > 76.9 µM
CCn1c(SCC(=O)Nc2ccc(C(C)=O)cc2)nc2ccccc21 > 76.9 µM
Cc1nc2ccc(NC(=O)Cn3cnc4c3c(=O)n(C)c(=O)n4C)cc2s1 > 76.9 µM
COC(=O)CCN1CCC(C(N)=O)CC1 > 76.9 µM
Cc1cc(C(=O)COC(=O)C2COc3ccccc3O2)c(C)n1CC1CCCO1 (stereo not given) > 76.9 µM
COc1ccc(S(=O)(=O)N2CCC(C(=O)NCCc3ccc4c(c3)OCO4)CC2)cc1 > 76.9 µM
C/C(N)=C(/C#N)C(=O)CSc1n[nH]c(-c2ccccc2Br)n1 > 76.9 µM
CN1C(=O)SC(Nc2ccccc2C(=O)O)C1=O (stereo not given) > 76.9 µM
O=C1CC(c2ccc3c(c2)OCO3)C2=C(CCCC2=O)N1 (stereo not given) > 76.9 µM
CCN1CCN(C(c2cccs2)C(C)NC(=O)c2ccco2)CC1 (stereo not given) > 76.9 µM
O=C(NCCCN1CCOCC1)c1cc(-c2ccc(F)cc2)on1 > 76.9 µM
O=C(CSc1nnc(-c2cccnc2)n1-c1ccccc1)Nc1ccccn1 > 76.9 µM
O=C(NCCOc1ccccc1)C1CCCN1C(=O)c1cccs1 (stereo not given) > 76.9 µM
Cc1c(C(=O)N2CCOCC2)oc2ccc(S(=O)(=O)N3CCCCCC3)cc12 > 76.9 µM
CCOc1ccc(CCNC(=O)CCN2C(=O)COc3ccccc32)cc1OCC > 76.9 µM
COc1cnn(-c2ccccc2)c(=O)c1N(C)C > 76.9 µM
CCOC(=O)N1CCN(C(=O)CSCC(=O)Nc2nc(-c3ccc(Cl)s3)cs2)CC1 > 76.9 µM
COc1ccc(-n2nnnc2SCC(=O)NCCc2ccc(OC)c(OC)c2)cc1 > 76.9 µM
CCOc1ccccc1OCC(=O)OCC(=O)Nc1ncc(Cl)cc1Cl > 76.9 µM
Cc1c(NS(C)(=O)=O)c(=O)n(-c2ccccc2)n1C > 76.9 µM
O=C(COC(=O)C1CCCN1C(=O)c1cccs1)c1ccccc1 (stereo not given) > 76.9 µM
O=C(NCC1CCCO1)C1CCC(CNS(=O)(=O)c2ccccc2)CC1 (stereo not given) > 76.9 µM
CC(C)(C)N=C1SCC(C)(/C=N/O)S1 (stereo not given) > 76.9 µM
O=C(CSc1nnc(-c2c[nH]c3ccccc23)n1-c1ccc(F)cc1)NCc1ccco1 > 76.9 µM
O=C1CCCN1CCC1CCN(C(=O)Nc2ccccc2)CC1 > 76.9 µM
CCOC(=O)c1ccc(-n2ncc(C(=O)OCC)c2N)cc1 > 76.9 µM
Cn1c(=O)cc(SCC(=O)NCCCN2CCOCC2)c2ccccc21 > 76.9 µM
COC(=O)c1cc2ccccc2c(=O)s1 > 76.9 µM
O=C(O)Cc1csc2ccccc12 > 76.9 µM
CS(=O)(=O)N(CC(=O)NCCSc1ccccc1)c1ccc2c(c1)OCO2 > 76.9 µM
Cc1nc2c(oc3ccccc32)c(=O)o1 > 76.9 µM
O=C(NCCCN1CCOCC1)[C@@H]1CSC2c3ccccc3C(=O)N21 (stereo not given in full) > 76.9 µM
COCCCNc1oc(-c2ccccc2OC)nc1C#N > 76.9 µM
Cn1c(CN2CCOCC2)nc2cc(NC(=O)c3ccccc3Cl)ccc21 > 76.9 µM
CSc1ccc(S(=O)(=O)Nc2cccc(F)c2)cc1
COc1cccc(NC(=O)Cc2nnc(SCC(=O)c3ccccc3)n2C)c1 > 76.9 µM
Cc1cc(C(=O)CN2C(=O)NC(c3ccccc3)(c3ccccc3)C2=O)c(C)n1Cc1ccco1 > 76.9 µM
CCS(=O)(=O)n1nc(-c2ccc(C)cc2)nc1N > 76.9 µM
O=C1NCCN1Cc1cccc(Cl)c1 > 76.9 µM
CC(=O)Nc1ccc(NC(=O)N2CCCCC2)cc1 > 76.9 µM
Cc1cccc(N2CC3=C(C2=O)C(c2ccccc2)NC(=O)N3C)c1 (stereo not given) > 76.9 µM
CNc1sc(C(=O)c2cccs2)c(N)c1-c1nc2ccccc2s1 > 76.9 µM
CCc1ccc(NC(=O)CSc2nc3cc(C(=O)OC)ccc3c(=O)n2Cc2ccco2)cc1 > 76.9 µM
CCOC(=O)N1CCN(C(=O)CN(c2cccc(C)c2)S(=O)(=O)c2ccc(C)cc2)CC1 > 76.9 µM
CCOC(=O)Cn1c(=O)oc2cc(S(=O)(=O)NCCc3ccc(OCC)c(OCC)c3)ccc21 > 76.9 µM
COc1ccc(C(C)=O)cc1COC(=O)c1cnc(C)cn1 > 76.9 µM
COc1ncnc2c1oc1nc(C(C)C)c3c(c12)CC(C)(C)OC3 > 76.9 µM
O=C(O)c1cccc(COc2ccc(CO)cc2Cl)c1 > 76.9 µM
O=c1sc2ccccc2n1CCOc1ccccc1 > 76.9 µM
O=C1c2ccccc2C(=O)N1CCCc1nc(-c2ccccn2)no1 > 76.9 µM
COc1ccccc1Oc1c(C)oc2c(CN3CCN(C)CC3)c(O)ccc2c1=O > 76.9 µM
COc1ccc(NC(=O)C(C)NS(=O)(=O)c2ccc(NC(C)=O)cc2)cc1Cl (stereo not given) > 76.9 µM
CC1CCCC(C)N1C(=O)Cn1c(SCC(=O)NCc2ccc3c(c2)OCO3)nc2ccccc21 (stereo not given) > 76.9 µM
COc1ccc(NC(C)=O)cc1NC(=O)CSc1nnc(-c2ccc(F)cc2)n1N > 76.9 µM
CN1C(=O)N(c2cccc3ccccc23)C(n2cncn2)C1(C)C (stereo not given) > 76.9 µM
C=CCn1c(SCC(=O)Nc2cc(NC(C)=O)ccc2OC)nnc1-c1ccccn1 > 76.9 µM
Cn1c(-c2ccc3c(c2)OCO3)cnc1NC(=O)CCC(=O)NCCc1ccccc1 > 76.9 µM
COc1ccc(C2CC(=O)N3CN(Cc4ccco4)CSC3=C2C#N)cc1 (stereo not given) > 76.9 µM
Cc1ccc(S(=O)(=O)N(C)CC(=O)N2CCN(c3ccccn3)CC2)cc1 > 76.9 µM
CN(C(=O)C12CC3CC(CC(C3)C1)C2)C1(C)CCS(=O)(=O)C1 (stereo not given) > 76.9 µM
COc1ccc2nc(C)cc(Nc3ccc(N4CCOCC4)cc3)c2c1
O=C(NCc1cccs1)c1ccncc1 > 76.9 µM
CCOC(=O)CSC1=C(C#N)C(c2ccccc2C)C2=C(CCCC2=O)N1 (stereo not given) > 76.9 µM
O=c1c2cc(N3CCOCC3)ccc2[nH]c(=S)n1CC1CCCO1 (stereo not given) > 76.9 µM
CC(C)NC(=O)NC1C2CC3CC(C2)CC1C3 (stereo not given) > 76.9 µM
COc1cc2c(C(=O)NCCCN3CCN(c4cccc(Cl)c4)CC3)cn(C)c(=O)c2cc1OC > 76.9 µM
CCOc1ccc(NC(=O)COc2nsnc2N2CCCCC2)cc1 > 76.9 µM
CC1=NCCN1S(=O)(=O)c1cc(Cl)ccc1Cl > 76.9 µM
Cc1cc(C)n(C(=O)CCCCCC(=O)n2nc(C)cc2C)n1 > 76.9 µM
Cc1ccc(-c2nnn(CC(=O)N(c3ccccc3)C(C(=O)NC3CCCC3)c3ccco3)n2)o1 (stereo not given) > 76.9 µM
O=C(CSc1nnc(CNc2ccc(F)cc2)o1)N1CCCc2ccccc21 > 76.9 µM
Cc1cc(N(C)C)c(C#N)c(=O)[nH]1 > 76.9 µM
Cc1cc(OCC(=O)O)c2ccccc2n1 > 76.9 µM
COc1ccc(-c2noc(CN(C(=O)c3c(-c4ccccc4Cl)noc3C)C(C)C)n2)cc1 > 76.9 µM
CCc1ccccc1N(C(=O)CCC(=O)Nc1cc(C)on1)C(C(=O)NC1CCCC1)c1ccco1 (stereo not given) > 76.9 µM
CCOC(=O)C1CCCN(CCC(C)c2ccccc2)C1 (stereo not given) > 76.9 µM
COC(=O)c1ccccc1S(=O)(=O)N(Cc1cc2cc3c(cc2[nH]c1=O)OCO3)C1CCCCC1 > 76.9 µM
COc1ccc(-n2c(Cn3nnc4ccccc43)nnc2SCC(=O)O)cc1 > 76.9 µM
CCCS(=O)(=O)C(=C1Nc2ccccc2N1)S(=O)(=O)CCC > 76.9 µM
CCCCOC(=O)C1=C(C)Nc2ncnn2C1c1cc(OC)c(OC)cc1OC (stereo not given) > 76.9 µM
